Reference: the supplement of paper PMC10126150
Values marked as one replicate rest on one cluster of the flow cell; about a third of the high ones do not repeat.

Test system: ATP
Assay: switch fluorescence ratio, 500 uM ATP over buffer (Cy3 cluster intensity, sum of 5 cycles each) (fold (ratio)); higher = stronger signal-on switching upon ATP binding; sequences stand for … in TCGTCGGCAGCGTCAGATGTGTATAAGAGACAGTTTTTTTTTTTTTTTTTTTTTTTTT…TC
Conditions: aptamer strand: ATP DNA aptamer (quencher-CACCTGGGGGAGTATTGCGGAGGAAGG + anchor), 100 nM annealed; ATP concentration: 500 uM; one replicate
Method in brief: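 The fluorescence ratio divides summed target-cycle Cy3 intensity by summed buffer-cycle Cy3 intensity for each cluster and is averaged per switch-domain sequence. Cy3-labelled switching-strand clusters on a modified Illumina MiSeq flow-cell were annealed to 100 nM quencher-labelled ATP aptamer, then imaged in selection buffer and again after 15 min with 500 uM ATP at 22 °C. Five such cycles were run, with NaOH stripping and re-annealing between them, and clusters outside 100-1000 RFU were excluded.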
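Also: ATP exposure 15 min at 22 °C before imaging.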

Row | Sequence | switch fluorescence ratio
1 | TAATTATGAA | 0.986
2 | CACGGTCGGA | 0.94
3 | GATTCTGACG | 1.05
4 | TAGGACGAG | 0.985
5 | GGATCCATGT | 0.997
6 | GGGCGTCGTG | 0.994
7 | GGGAAGACAA | 1.01
8 | ACCATTTTCT | 1.03
9 | AATCCCATCC | 1.08
10 | GAACCCATCA | 1
11 | TTGACGTACA | 1.68
12 | GAAGTTAGTC | 0.989
13 | GGTTTCATTT | 0.996
14 | TCGACCTGAA | 1.35
15 | CAGAGTGC | 1.05
16 | AGGCGTACGC | 1.03
17 | AATTAGAGCT | 1.06
18 | GAGTGTCTAT | 1
19 | GATTGCTACG | 1.03
20 | TTAGAGTTT | 0.984
21 | ACGGTATCAT | 1.05
22 | TCCGTGGTTG | 1.04
23 | CTTAACTAGG | 1.06

Row | Sequence | switch fluorescence ratio
24 | ATATTCAGAT | 1.04
25 | TATGTGGGAC | 0.984
26 | CGAAAAGATC | 1.1
27 | TTGCGAGCTA | 1.06
28 | AGACCTATGT | 0.976
29 | TATAGGGCGA | 0.957
30 | GAGCATAGGA | 1.06
31 | ACACAGCCGG | 1.09
32 | ACTCCCATAT | 3.19
33 | AATACCTTCG | 2.22
34 | GCTTCCAACT | 1.01
35 | AGTAGGCCCT | 0.99
36 | TTCTTATTTA | 0.997
37 | AGAAACGGCA | 1.05
38 | CAGGTGTTTT | 1.48
39 | CTTACATGGT | 0.981
40 | TCGAACTATG | 1.03
41 | AAGTCTTCC | 1.48
42 | GGCGGCTTTG | 1.07
43 | TGATTAGGTT | 0.989
44 | GGTAGGCGC | 0.991
45 | GAATGGAAGG | 0.974
46 | ATGGATTCAA | 1.02

Row | Sequence | switch fluorescence ratio
47 | ATTCAAGACT | 1.05
48 | GCTGGTCTGA | 1.01
49 | TTCATGTATC | 1.02
50 | GGGCCCAAAT | 0.98
51 | GTCTGAAAGT | 1.01
52 | GCTCCACACG | 1.49
53 | AAACAGGTCC | 1.05
54 | CCGACTGATA | 2.02
55 | TGCGAAGAAG | 0.99
56 | CTTGTCTCGC | 1.03
57 | TTAGAGAGAG | 1.03
58 | AGGTCCGGCC | 0.986
59 | GGATCAGATG | 0.97
60 | TGCGCAGCTG | 1.02
61 | CGTCTGTCGA | 1.06
62 | TTGTGAAGAA | 0.958
63 | ATATTATAGT | 1.04
64 | TGCGGACTGG | 1.06
65 | TGTCTGTGTG | 0.989
66 | TAAGGACATC | 1.06
67 | TCAATTTCGA | 1.02
68 | TTGAATCGTT | 1.03
69 | GTACTTATCG | 1

Row | Sequence | switch fluorescence ratio
70 | CCGAATTTTG | 0.968
71 | GGTATCATCA | 1.02
72 | ATGTGTAGAT | 1.03
73 | TCAGGGACG | 0.967
74 | CGCAGCAACT | 5.64
75 | TAGCGCACTC | 1.47
76 | CTAGGCGCG | 0.955
77 | CAACACTTGC | 1.08
78 | AAATACATGG | 0.986
79 | GCTTCTACAT | 0.97
80 | GTAGCAAGA | 1.66
81 | CCCATTATTA | 1.06
82 | AGGCGTATTA | 1.02
83 | GCAATGTGTA | 1.02
84 | GCATAGTTCC | 1.15
85 | CGTCCACATT | 1.8
86 | ATGATGTCCG | 1.03
87 | CATCGATCAG | 0.995
88 | AAAAGGCCG | 0.995
89 | TATGTGGGCG | 1.06
90 | TCGATTTAG | 1
91 | TGTTCGGGCT | 1
92 | GGTAACTACA | 0.961

Row | Sequence | switch fluorescence ratio
93 | CCCGTTCCC | 1.1
94 | ACCAGCCAGT | 1.06
95 | GTTAGATTCG | 1.02
96 | TGTCAGACCT | 1.08
97 | GGCTTCGGCT | 1.01
98 | TGGGAGGTAA | 1.17
99 | TTGATGATGG | 1.01
100 | CGGGCATTGC | 1.13
101 | GATGCTAG | 1.01
102 | ATTGAAAAGT | 1.02
103 | CAGAGGGTTC | 1.02
104 | AATTCTCTCC | 1
105 | CAAAGAAGGC | 1.06
106 | TTGTAGGGC | 1
107 | TGCGCCCACA | 1.01
108 | TTGCCAGTTT | 1.04
109 | GGTATGGCGT | 1.11
110 | TTCGCTAAGC | 1.07
111 | TACTAAAGTC | 1.03
112 | GCTGTCAAAG | 0.982
113 | GGCTCACGGG | 1.03
114 | TTATTGTCGT | 0.996
115 | TTCGAACATA | 1

Row | Sequence | switch fluorescence ratio
116 | TAGTATCA | 1.01
117 | AAGGTCCAG | 0.989
118 | TCTAGTTCG | 0.961
119 | TAGTGAGTCT | 1.01
120 | AAATTGCCAT | 1.02
121 | TTGCGATTTA | 0.971
122 | CTATAAGTAC | 1.43
123 | AGCCGTTTGG | 0.999
124 | TTTCAAACGC | 1.2
125 | CGGCGTATTG | 0.979
126 | CGATAGGCTA | 1.01
127 | TGTCGCACAC | 2.22
128 | AACTGGAGAG | 0.983
129 | GGCGTGAGCG | 1.02
130 | CGAAAACGCC | 1.11
131 | CCGAACAGCA | 3.64
132 | GACCGAGTTA | 0.982
133 | GCATTTACTT | 1.05
134 | TCCGTCTGGT | 0.996
135 | GGCTAGTGTT | 0.979
136 | TTATGATATG | 1.01
137 | TAAATGCCGT | 1.07
138 | AGCCCCAGTT | 1.14

Row | Sequence | switch fluorescence ratio
139 | CAATGTTGGT | 1.03
140 | GACAAAAGTT | 0.985
141 | AATCATCAT | 0.998
142 | CAAAGTTATC | 0.971
143 | TATTCCTGAC | 1.91
144 | TGATTGCATC | 0.989
145 | AGGCTGAGAA | 0.977
146 | TAAATCCCCT | 0.999
147 | CAGAATTTCA | 0.983
148 | ATGACAGATG | 1.03
149 | GGTTCCAATT | 1.48
150 | GAGATTCAGG | 0.984
151 | GAGCGAGTAA | 1.02
152 | CGATGCCCTC | 1.03
153 | TAGGCACACT | 1.08
154 | TGACCGTGGC | 1.09
155 | TAGGGTCCGT | 1
156 | CATCGGTAAG | 1.02
157 | TATCCGACTG | 1.05
